{
  "source": "the supplement of paper PMC8728848",
  "binders": {"B1": {"name": "AFL5 (Aspergillus fumigatus), Q4WB00 (protein)", "chain": "MDNFMEMTKKLGHQPELLRLRALDATYDDALEGKLVVAPLDMSEPGKKILDSGTADGTWLRNVRSKQSVPHDYYGSDVEGELFPKDPDGITYFAHSFKDPWPQQYLGFFDLVHIRGSLAGSAPEGPAPVIQNLTTLLKPGGWVQLMEMNAFSPPPNGPAMTDFAKMASEMFTGIGVGDFANNNKSMLEDAGLKNVQEKRVIVNLGKKAKPELHDQSIHGVTGPIVPLTSVARTVKSSFTGEQLDALPARVKEELETEGGQVEMIIAFGQKA"}},
  "assay_in_all_cases": "glycan array binding signal (z-score within array); higher = stronger binding",
  "conditions_in_all_cases": "glycan notation: IUPAC condensed, linker removed",
  "key": {"[1]": {"target": "Fuc(a1-2)Gal(b1-4)[Fuc(a1-3)]GlcNAc", "summary_of_the_method": "(§1)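 Glycan array binding is given as a within-array Z-score, which can be read as non-binding when negative. The arrays, 3228 of them, came from the Consortium for Functional Glycomics database and were retained only where the protein sequence was available. Z-scores were averaged across arrays of the same protein sequence at different concentrations or buffers and across linkers.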"}, "[2]": {"target": "Fuc(a1-2)Gal(b1-4)[Fuc(a1-3)]GlcNAc(b1-2)Man(a1-3)[Fuc(a1-2)Gal(b1-4)[Fuc(a1-3)]GlcNAc(b1-2)Man(a1-6)]Man(b1-4)GlcNAc(b1-4)[Fuc(a1-6)]GlcNAc", "summary_of_the_method": "as §1"}, "[3]": {"target": "Fuc(a1-2)Gal(b1-4)[Fuc(a1-3)]GlcNAc(b1-2)[Fuc(a1-2)Gal(b1-4)[Fuc(a1-3)]GlcNAc(b1-4)]Man(a1-3)[Fuc(a1-2)Gal(b1-4)[Fuc(a1-3)]GlcNAc(b1-2)Man(a1-6)]Man(b1-4)GlcNAc(b1-4)GlcNAc", "summary_of_the_method": "as §1"}, "[4]": {"target": "Fuc(a1-2)Gal(b1-4)[Fuc(a1-3)]GlcNAc(b1-3)Gal(b1-4)[Fuc(a1-3)]GlcNAc", "summary_of_the_method": "as §1"}, "[5]": {"target": "Fuc(a1-2)Gal(b1-4)[Fuc(a1-3)]GlcNAc(b1-3)Gal(b1-4)[Fuc(a1-3)]GlcNAc(b1-3)Gal(b1-4)[Fuc(a1-3)]GlcNAc", "summary_of_the_method": "as §1"}, "[6]": {"target": "Fuc(a1-2)Gal(b1-4)[Fuc(a1-3)]GlcNAc(b1-3)GalNAc", "summary_of_the_method": "as §1"}, "[7]": {"target": "Fuc(a1-2)Gal(b1-4)[Fuc(a1-3)]GlcNAc(b1-3)[Neu5Ac(a2-6)Gal(b1-4)GlcNAc(b1-6)]Gal(b1-4)Glc", "summary_of_the_method": "as §1"}, "[8]": {"target": "Fuc(a1-2)Gal3S(b1-4)GlcNAc", "summary_of_the_method": "as §1"}, "[9]": {"target": "Fuc(a1-2)Gal6S(b1-3)GlcNAc", "summary_of_the_method": "as §1"}, "[10]": {"target": "Fuc(a1-2)Gal6S(b1-3)GlcNAc6S", "summary_of_the_method": "as §1"}, "Fuc(a1-2)Gal6S(b1-4)Glc": {"target": "Fuc(a1-2)Gal6S(b1-4)Glc", "summary_of_the_method": "as §1"}, "[11]": {"target": "Fuc(a1-2)Gal6S(b1-4)Glc6S", "summary_of_the_method": "as §1"}, "Fuc(a1-2)[Gal(a1-3)]Gal": {"target": "Fuc(a1-2)[Gal(a1-3)]Gal", "summary_of_the_method": "as §1"}, "[12]": {"target": "Fuc(a1-2)[Gal(a1-3)]Gal(b1-3)GalNAc", "summary_of_the_method": "as §1"}, "[13]": {"target": "Fuc(a1-2)[Gal(a1-3)]Gal(b1-3)GalNAc(b1-3)Gal(a1-4)Gal(b1-4)Glc", "summary_of_the_method": "as §1"}, "[14]": {"target": "Fuc(a1-2)[Gal(a1-3)]Gal(b1-3)GlcNAc", "summary_of_the_method": "as §1"}, "[15]": {"target": "Fuc(a1-2)[Gal(a1-3)]Gal(b1-3)GlcNAc(b1-2)Man(a1-3)[Fuc(a1-2)[Gal(a1-3)]Gal(b1-3)GlcNAc(b1-2)Man(a1-6)]Man(b1-4)GlcNAc(b1-4)GlcNAc", "summary_of_the_method": "as §1"}, "[16]": {"target": "Fuc(a1-2)[Gal(a1-3)]Gal(b1-3)GlcNAc(b1-2)Man(a1-3)[Fuc(a1-2)[Gal(a1-3)]Gal(b1-3)GlcNAc(b1-2)Man(a1-6)]Man(b1-4)GlcNAc(b1-4)[Fuc(a1-6)]GlcNAc", "summary_of_the_method": "as §1"}, "[17]": {"target": "Fuc(a1-2)[Gal(a1-3)]Gal(b1-3)GlcNAc(b1-3)GalNAc", "summary_of_the_method": "as §1"}, "[18]": {"target": "Fuc(a1-2)[Gal(a1-3)]Gal(b1-3)GlcNAc(b1-6)GalNAc", "summary_of_the_method": "as §1"}, "[19]": {"target": "Fuc(a1-2)[Gal(a1-3)]Gal(b1-4)Glc", "summary_of_the_method": "as §1"}, "[20]": {"target": "Fuc(a1-2)[Gal(a1-3)]Gal(b1-4)GlcNAc", "summary_of_the_method": "as §1"}, "[21]": {"target": "Fuc(a1-2)[Gal(a1-3)]Gal(b1-4)GlcNAc(b1-2)Man", "summary_of_the_method": "as §1"}, "[22]": {"target": "Fuc(a1-2)[Gal(a1-3)]Gal(b1-4)GlcNAc(b1-2)Man(a1-3)[Fuc(a1-2)[Gal(a1-3)]Gal(b1-4)GlcNAc(b1-2)Man(a1-6)]Man(b1-4)GlcNAc(b1-4)GlcNAc", "summary_of_the_method": "as §1"}, "[23]": {"target": "Fuc(a1-2)[Gal(a1-3)]Gal(b1-4)GlcNAc(b1-2)Man(a1-3)[Fuc(a1-2)[Gal(a1-3)]Gal(b1-4)GlcNAc(b1-2)Man(a1-6)]Man(b1-4)GlcNAc(b1-4)[Fuc(a1-6)]GlcNAc", "summary_of_the_method": "as §1"}, "[24]": {"target": "Fuc(a1-2)[Gal(a1-3)]Gal(b1-4)GlcNAc(b1-3)GalNAc", "summary_of_the_method": "as §1"}, "[25]": {"target": "Fuc(a1-2)[Gal(a1-3)]Gal(b1-4)GlcNAc(b1-3)[Fuc(a1-2)[Gal(a1-3)]Gal(b1-4)GlcNAc(b1-6)]GalNAc", "summary_of_the_method": "as §1"}, "[26]": {"target": "Fuc(a1-2)[Gal(a1-3)]Gal(b1-4)GlcNAc(b1-6)GalNAc", "summary_of_the_method": "as §1"}, "[27]": {"target": "Fuc(a1-2)[Gal(a1-3)]Gal(b1-4)[Fuc(a1-3)]Glc", "summary_of_the_method": "as §1"}, "[28]": {"target": "Fuc(a1-2)[Gal(a1-3)]Gal(b1-4)[Fuc(a1-3)]GlcNAc", "summary_of_the_method": "as §1"}, "[29]": {"target": "Fuc(a1-2)[Gal(a1-3)]Gal(b1-4)[Fuc(a1-3)]GlcNAc(b1-3)GalNAc", "summary_of_the_method": "as §1"}, "[30]": {"target": "Fuc(a1-2)[Gal(a1-4)]Gal(b1-4)GlcNAc", "summary_of_the_method": "as §1"}, "[31]": {"target": "Fuc(a1-2)[GalNAc(a1-3)]Gal", "summary_of_the_method": "as §1"}, "[32]": {"target": "Fuc(a1-2)[GalNAc(a1-3)]Gal(b1-3)GalNAc(a1-3)[Fuc(a1-2)]Gal(b1-4)GlcNAc", "summary_of_the_method": "as §1"}, "[33]": {"target": "Fuc(a1-2)[GalNAc(a1-3)]Gal(b1-3)GalNAc(b1-3)Gal(a1-4)Gal(b1-4)Glc", "summary_of_the_method": "as §1"}, "[34]": {"target": "Fuc(a1-2)[GalNAc(a1-3)]Gal(b1-3)GlcNAc", "summary_of_the_method": "as §1"}, "[35]": {"target": "Fuc(a1-2)[GalNAc(a1-3)]Gal(b1-3)GlcNAc(b1-2)Man(a1-3)[Fuc(a1-2)[GalNAc(a1-3)]Gal(b1-3)GlcNAc(b1-2)Man(a1-6)]Man(b1-4)GlcNAc(b1-4)GlcNAc", "summary_of_the_method": "as §1"}, "[36]": {"target": "Fuc(a1-2)[GalNAc(a1-3)]Gal(b1-3)GlcNAc(b1-2)Man(a1-3)[Fuc(a1-2)[GalNAc(a1-3)]Gal(b1-3)GlcNAc(b1-2)Man(a1-6)]Man(b1-4)GlcNAc(b1-4)[Fuc(a1-6)]GlcNAc", "summary_of_the_method": "as §1"}},
  "note": "Some of the results follow.",
  "data": [
    {"binder": "B1", "values": [
      {"measurement": "glycan array binding signal (z-score)", "setting": "[1]", "result": -0.295},
      {"measurement": "glycan array binding signal (z-score)", "setting": "[2]", "result": 0.182},
      {"measurement": "glycan array binding signal (z-score)", "setting": "[3]", "result": -0.006},
      {"measurement": "glycan array binding signal (z-score)", "setting": "[4]", "result": -0.442},
      {"measurement": "glycan array binding signal (z-score)", "setting": "[5]", "result": -0.555},
      {"measurement": "glycan array binding signal (z-score)", "setting": "[6]", "result": 0.141},
      {"measurement": "glycan array binding signal (z-score)", "setting": "[7]", "result": -0.22},
      {"measurement": "glycan array binding signal (z-score)", "setting": "[8]", "result": -0.47},
      {"measurement": "glycan array binding signal (z-score)", "setting": "[9]", "result": 0.028},
      {"measurement": "glycan array binding signal (z-score)", "setting": "[10]", "result": 0.732},
      {"measurement": "glycan array binding signal (z-score)", "setting": "Fuc(a1-2)Gal6S(b1-4)Glc", "result": 0.138},
      {"measurement": "glycan array binding signal (z-score)", "setting": "[11]", "result": -0.286},
      {"measurement": "glycan array binding signal (z-score)", "setting": "Fuc(a1-2)[Gal(a1-3)]Gal", "result": 0.028},
      {"measurement": "glycan array binding signal (z-score)", "setting": "[12]", "result": -0.145},
      {"measurement": "glycan array binding signal (z-score)", "setting": "[13]", "result": -0.062},
      {"measurement": "glycan array binding signal (z-score)", "setting": "[14]", "result": -0.252},
      {"measurement": "glycan array binding signal (z-score)", "setting": "[15]", "result": 0.4},
      {"measurement": "glycan array binding signal (z-score)", "setting": "[16]", "result": -0.194},
      {"measurement": "glycan array binding signal (z-score)", "setting": "[17]", "result": 0.302},
      {"measurement": "glycan array binding signal (z-score)", "setting": "[18]", "result": -0.151},
      {"measurement": "glycan array binding signal (z-score)", "setting": "[19]", "result": -0.09},
      {"measurement": "glycan array binding signal (z-score)", "setting": "[20]", "result": -0.456},
      {"measurement": "glycan array binding signal (z-score)", "setting": "[21]", "result": 0.14},
      {"measurement": "glycan array binding signal (z-score)", "setting": "[22]", "result": 0.381},
      {"measurement": "glycan array binding signal (z-score)", "setting": "[23]", "result": -0.46},
      {"measurement": "glycan array binding signal (z-score)", "setting": "[24]", "result": -0.042},
      {"measurement": "glycan array binding signal (z-score)", "setting": "[25]", "result": -0.032},
      {"measurement": "glycan array binding signal (z-score)", "setting": "[26]", "result": -0.375},
      {"measurement": "glycan array binding signal (z-score)", "setting": "[27]", "result": -0.446},
      {"measurement": "glycan array binding signal (z-score)", "setting": "[28]", "result": -0.109},
      {"measurement": "glycan array binding signal (z-score)", "setting": "[29]", "result": 0.71},
      {"measurement": "glycan array binding signal (z-score)", "setting": "[30]", "result": 0.73},
      {"measurement": "glycan array binding signal (z-score)", "setting": "[31]", "result": -0.215},
      {"measurement": "glycan array binding signal (z-score)", "setting": "[32]", "result": 0.569},
      {"measurement": "glycan array binding signal (z-score)", "setting": "[33]", "result": 0.018},
      {"measurement": "glycan array binding signal (z-score)", "setting": "[34]", "result": 0.234},
      {"measurement": "glycan array binding signal (z-score)", "setting": "[35]", "result": -0.628},
      {"measurement": "glycan array binding signal (z-score)", "setting": "[36]", "result": -0.015}
    ]}
  ]
}
